{"source": "PubChem BioAssay AID624170", "about": "(National Center for Advancing Translational Sciences (NCATS), 2012)", "note": "The whole screen tested about 410,000 compounds, of which about 850 (0.21%) were called active. Inconclusive means that the source gave no clear call. Such entries were picked first, then a sample of the others. Calls come from the whole dose curve; as a rule, active = well fitted inhibition curve with a large enough effect; inconclusive = small, poorly fitted or top-dose-only effect, or another doubt; inactive = no such curve, though single readings can be large or run the other way. No potency is given beside an inconclusive call; the fits are too rough. Potency is the fitted concentration of half-maximal effect; tags give direction and shape of the fitted curve."}
{"biological_target": "Glutaminase kidney isoform, mitochondrial (Homo sapiens) (UniProt O94925)", "sequence (O94925 whole entry, looked up, canonical isoform)": "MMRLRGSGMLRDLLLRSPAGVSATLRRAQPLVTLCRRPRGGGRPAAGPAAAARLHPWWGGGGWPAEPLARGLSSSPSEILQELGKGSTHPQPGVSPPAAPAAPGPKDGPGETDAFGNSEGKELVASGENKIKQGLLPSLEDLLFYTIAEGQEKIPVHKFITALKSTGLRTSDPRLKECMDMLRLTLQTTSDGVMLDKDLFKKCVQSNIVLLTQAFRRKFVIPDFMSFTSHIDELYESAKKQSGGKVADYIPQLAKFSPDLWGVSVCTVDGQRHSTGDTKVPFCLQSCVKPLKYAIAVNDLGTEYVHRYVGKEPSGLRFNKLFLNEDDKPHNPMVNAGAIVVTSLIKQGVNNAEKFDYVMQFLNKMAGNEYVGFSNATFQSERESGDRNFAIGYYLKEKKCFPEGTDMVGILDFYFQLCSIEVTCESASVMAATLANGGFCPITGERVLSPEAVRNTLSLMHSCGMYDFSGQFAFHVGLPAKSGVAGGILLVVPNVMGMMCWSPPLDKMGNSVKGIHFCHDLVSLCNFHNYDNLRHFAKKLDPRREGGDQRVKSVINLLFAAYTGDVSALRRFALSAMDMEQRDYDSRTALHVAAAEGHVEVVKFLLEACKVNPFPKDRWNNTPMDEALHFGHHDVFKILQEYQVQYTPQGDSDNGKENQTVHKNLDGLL", "assay": "qHTS for Inhibitors of Glutaminase (GLS)", "details": "GLS enzymatic activity, qHTS titration; series mostly up to 45.5 µM", "outline": "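Assay buffer: 45 mM KH2PO4 pH 8.2, 0.02% Tween-20. hKGA acts on L-glutamine (1 mM solution added); product glutamate is reported by an oxidase/peroxidase Amplex Red coupling, with fluorescence taken at baseline and 30 min.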"}
{"smiles": "CCCCN1C(=O)CCC(C(=O)O)C1c1ccccc1", "note": "(stereo unspecified)", "Potency": "inconclusive [inhibitor, single point]"}
{"smiles": "CCOC(=O)c1sc(N)c(C(=O)Nc2ccccc2OC)c1C", "Potency": "inconclusive [inhibitor, single point]"}
{"smiles": "CC1(C)C(C=C(Cl)Cl)C1C(=O)N(Cc1ccc(Cl)cc1)C1CCS(=O)(=O)C1", "note": "(stereo unspecified)", "Potency": "inconclusive [inhibitor, partial curve, poor fit]"}
{"smiles": "CC1(C)CNC(=O)c2sc(N3CCCCC3)nc2C1", "Potency": "inconclusive [inhibitor, partial curve, poor fit]"}
{"smiles": "O=C(/C=C/c1cccc([N+](=O)[O-])c1)Nc1cc(C(=O)O)cc(C(=O)O)c1", "Potency": "inconclusive [inhibitor, single point]"}
{"smiles": "Cc1cc(-c2nnc(CCC(=O)N(CC3CC3)CC3CCCO3)o2)no1", "note": "(stereo unspecified)", "Potency": "inconclusive [inhibitor, single point]"}
{"smiles": "CCOc1ccc(-n2c(=O)c3c(C)c(C(=O)N(C)C)sc3n(CC(=O)Nc3c(C)cc(C)cc3C)c2=O)cc1", "Potency": "inactive"}
{"smiles": "O=c1[nH]c(-c2ccccn2)nc2sc(-c3ccccc3)cc12", "Potency": "inconclusive [inhibitor, partial curve, poor fit]"}
{"smiles": "C/C(=N\\NC(=S)NC1CCCCC1)c1ccc(O)cc1", "Potency": "inconclusive [inhibitor, partial curve]"}
{"smiles": "Cc1ccc(-c2csc(NC(=S)NC(=O)c3cc4ccccc4o3)n2)cc1", "Potency": "inactive"}
{"smiles": "CCOc1cccc(C(=O)NC(=S)Nc2ccc(N3CCN(CC)CC3)cc2)c1", "Potency": "inactive"}
{"smiles": "Cc1ccc(Nc2nc(COC(=O)C3CC3)cs2)cc1", "Potency": "inconclusive [inhibitor, partial curve, poor fit]"}
{"smiles": "CCN(CC)c1ccc(NC(=O)CCS(=O)(=O)c2ccc(Br)cc2)c(C)c1", "Potency": "inconclusive [inhibitor, single point]"}
{"smiles": "N#CCCn1cc(C(=O)Nc2ccc(C(=O)O)cc2)c(-c2cccs2)n1", "Potency": "inconclusive [inhibitor, single point]"}
{"smiles": "CCCCNC(=O)C(CC)Sc1nnc(-c2ccc(OC)c(OC)c2)c(-c2ccc(OC)c(OC)c2)n1", "note": "(stereo unspecified)", "Potency": "inconclusive [inhibitor, single point]"}
{"smiles": "C=CCOc1ccc(/C=C2\\SC(=S)N(N3CCOCC3)C2=O)cc1", "Potency": "inconclusive [inhibitor, full curve]"}
{"smiles": "Cc1cc(O)c(NC(=O)c2cccc([N+](=O)[O-])c2)cc1C", "Potency": "inconclusive [inhibitor, single point]"}
{"smiles": "O=C(CN1CCCCCC1)Nc1nc2ccccc2s1", "Potency": "inactive"}
{"smiles": "CCOc1ccc(C(=O)c2cnc3ccccc3c2N2CCN(CC)CC2)cc1", "Potency": "inactive"}
{"smiles": "Cc1cccc(/C=N/NC(=O)c2ccccc2OCc2cccc(Br)c2)n1", "Potency": "inconclusive [inhibitor, single point]"}
{"smiles": "COc1ccc(CC(N)c2csc(NC(=O)c3cccs3)n2)cc1", "note": "(stereo unspecified)", "Potency": "inconclusive [inhibitor, single point]"}
{"smiles": "CN(C)Cc1ccccc1Sc1ccc(O)cc1O", "Potency": "inconclusive [inhibitor, partial curve, poor fit]"}
{"smiles": "S=c1[nH]nc(-c2cccnc2)n1/N=C/c1ccccc1", "Potency": "inactive"}
{"smiles": "S=c1[nH]nc(C2CCCCC2)n1/N=C/C=C/c1ccccc1", "Potency": "inconclusive [inhibitor, partial curve]"}
{"smiles": "O=C(Nc1cccc(Cl)c1)Nc1nc(-c2ccccc2)cs1", "Potency": "inactive"}
{"smiles": "O=C(CCN1CCc2ccccc2C(c2ccccc2)C1)c1ccc2c(c1)OCCO2", "note": "(stereo unspecified)", "Potency": "inconclusive [inhibitor, single point]"}
{"smiles": "CCN(Cc1ccccc1)S(=O)(=O)c1ccc(C(=O)N(CCCN(C)C)c2nc3cc4c(cc3s2)OCO4)cc1", "Potency": "inactive"}
{"smiles": "CCOC(=O)c1cc(-c2ccc(OC)cc2)nn1-c1ccccc1C(=O)O", "Potency": "active: 11.2 µM"}
{"smiles": "CCOc1ccc(CN2C(=O)c3ccccc3Sc3ccc(C(=O)NCCCN4CCOCC4)cc32)cc1", "Potency": "inactive"}
{"smiles": "CCN(CC(=O)Nc1c(F)cccc1F)C(=O)c1cccc(-n2cccc2)c1", "Potency": "inconclusive [inhibitor, single point]"}
{"smiles": "COc1ccc(-c2cc(-c3cc(OC)ccc3O)[nH]n2)cc1", "Potency": "inconclusive [inhibitor, single point]"}
{"smiles": "CC(=O)NCc1ccc(S(=O)(=O)N/N=C/c2ccc(N(C)C)cc2)cc1", "Potency": "inconclusive [inhibitor, single point]"}
{"smiles": "O=C(O)/C(=C\\c1cccs1)Sc1nnc(-c2ccc(F)cc2)o1", "Potency": "inactive"}
{"smiles": "Cc1ccc(C23CC4CC(CC(NC(=O)NCCN(C)C)(C4)C2)C3)cc1", "Potency": "inactive"}
{"smiles": "Cc1ccn2cc(-c3cccc(NC(=O)CCC(=O)O)c3)nc2c1", "Potency": "inactive"}
{"smiles": "O=C(Nc1ccc(Cl)cc1C(=O)O)c1ccc2c(c1)C(=O)N(Cc1ccco1)C2=O", "Potency": "inconclusive [inhibitor, single point]"}
{"smiles": "NNC(=O)c1cncc(Br)c1", "Potency": "inconclusive [inhibitor, partial curve]"}
{"smiles": "Cc1cc(C)cc(N(CC(=O)O)S(=O)(=O)c2c(C)noc2C)c1", "Potency": "inconclusive [inhibitor, single point]"}
{"smiles": "CC1CCc2nc3ccccc3c(C(=O)OCC(=O)N3CCc4ccccc43)c2C1", "note": "(stereo unspecified)", "Potency": "inactive"}
{"smiles": "Cc1ccc2nc(-c3ccc(SCC(=O)Nc4ccc5c(c4)OCCO5)nc3)[nH]c2c1", "Potency": "inactive"}
{"smiles": "Cc1cc(O)c(Oc2cc(C)cc(O)c2O)c(O)c1", "Potency": "inconclusive [inhibitor, single point]"}
{"smiles": "CCCCCCNC(=O)c1cc(-c2ccco2)nc2ccccc12", "Potency": "inconclusive [inhibitor, single point]"}
{"smiles": "CC1(C)CC(=O)c2cc(-c3nc(-c4ccc(F)cc4)cs3)c(=O)[nH]c2C1", "Potency": "inconclusive [inhibitor, single point]"}
{"smiles": "CC(C)C(=O)N1CCC1(C)C(=O)NCc1ccc(C(C)(C)C)cc1", "note": "(stereo unspecified)", "Potency": "inactive"}
{"smiles": "O=C(Nc1nc2ccccc2n1CCN1CCOCC1)c1ccccc1", "Potency": "inactive"}
{"smiles": "Cc1ccc(NC(=S)c2ccc3ccccc3n2)c(C)c1", "Potency": "inconclusive [inhibitor, partial curve]"}
{"smiles": "O=C(NNc1ncccc1-n1cccc1)c1ccc(Cl)cc1", "Potency": "inconclusive [inhibitor, partial curve]"}
{"smiles": "Nc1c(Cl)ncnc1N/N=C/c1ccccn1", "Potency": "inactive"}
{"smiles": "Cc1cc(C)cc(N=c2c([N+](=O)[O-])nn(-c3cccc(Cl)c3)n2O)c1", "Potency": "inconclusive [inhibitor, partial curve]"}
{"smiles": "CCOc1ccc(NC(=O)[C@@H]2CCC(=O)N2C2OC(=O)c3ccccc32)cc1", "note": "(stereo partly specified)", "Potency": "inactive"}
{"smiles": "CCOC(=O)Oc1ccc(/C=C2\\N=C(C)OC2=O)cc1", "Potency": "inconclusive [inhibitor, single point]"}
{"smiles": "COc1ccc(/C=N/n2cnc3c([nH]c4ccccc43)c2=O)cc1CO", "Potency": "inconclusive [inhibitor, single point]"}
{"smiles": "Cc1c(/C=N/Nc2nc3ccccc3[nH]2)c2ccccc2n1C", "Potency": "inconclusive [inhibitor, single point]"}
{"smiles": "Cn1sc(NC(=O)c2ccccc2Cl)nc1=O", "Potency": "inactive"}
{"smiles": "CNS(=O)(=O)c1cc(C(=O)O)ccc1OC", "Potency": "inconclusive [inhibitor, single point]"}
{"smiles": "COc1cc(OC)c(OC)cc1/C=N/n1c(COc2ccccc2)n[nH]c1=S", "Potency": "inconclusive [inhibitor, single point]"}
{"smiles": "NS(=O)(=O)c1ccc(CCNC(=O)/C=C/c2ccc([N+](=O)[O-])cc2)cc1", "Potency": "inactive"}
{"smiles": "CSc1nnc(NC(=O)c2nc(S(=O)(=O)Cc3cccc(C)c3)ncc2Cl)s1", "Potency": "inactive"}
{"smiles": "CCCNC(=O)Cn1c2ccccc2c2nc(=O)cc(C)n21", "Potency": "inactive"}
{"smiles": "CC1CC(C)(C)Nc2ccc(OC(=O)c3ccco3)cc21", "note": "(stereo unspecified)", "Potency": "inconclusive [inhibitor, full curve]"}
{"smiles": "O=C(NCc1ccco1)c1ccccc1NC(=O)C1CC(=O)N(c2ccc(Cl)cc2)C1", "note": "(stereo unspecified)", "Potency": "inconclusive [inhibitor, partial curve]"}
{"smiles": "CC(=O)Nc1ccc(S(=O)(=O)Nc2nc3nc(-c4ccccc4)cc(-c4ccccc4)n3n2)cc1", "Potency": "inconclusive [inhibitor, single point]"}
{"smiles": "CCc1nc2ccc(C(=O)N3CCN(c4cccc(Cl)c4)CC3)cc2nc1CC", "Potency": "inconclusive [inhibitor, partial curve, poor fit]"}
{"smiles": "C=C(C)C(=O)Nc1cccc(C2=NOC3(C2)C[C@H](C(N)=O)N(C(=O)CC#N)C3)c1", "note": "(stereo partly specified)", "Potency": "inactive"}
{"smiles": "O=c1oc2cc([N+](=O)[O-])ccc2nc1/C=C(\\O)c1cccc(Br)c1", "Potency": "inconclusive [inhibitor, partial curve]"}
{"smiles": "O=C1C=C(c2c(O)ccc3ccccc23)c2ccccc2C1=O", "Potency": "inconclusive [inhibitor, partial curve, poor fit]"}
{"smiles": "COc1ccc(CNC[C@H]2O[C@@H](n3ccc(=O)[nH]c3=O)[C@H](O)[C@@H]2O)cc1", "Potency": "inactive"}
{"smiles": "COc1ccc(Nc2cc(C(=O)NCCCN3CCN(c4ccccc4F)CC3)c3ccccc3n2)c(OC)c1", "Potency": "inactive"}
{"smiles": "Cc1cc(F)ccc1-c1cc(C(=O)NCc2cccs2)[nH]n1", "Potency": "inconclusive [inhibitor, partial curve, poor fit]"}
{"smiles": "CSc1nnc(NC(=O)c2ccc(S(=O)(=O)N3CCOCC3)cc2)s1", "Potency": "inactive"}
{"smiles": "S=c1[nH]nc(C2CCCCC2)n1/N=C/c1ccc(Cl)cc1", "Potency": "inconclusive [inhibitor, partial curve, poor fit]"}
